{"source": "PubChem BioAssay AID504333", "about": "(National Center for Advancing Translational Sciences (NCATS), 2011)", "note": "Hit rate of the full screen: of about 360,000 compounds, about 16,000 (4.4%) were called active. This list was built around the results that the source calls inconclusive (neither active nor inactive); the mix of calls is not that of the screen. Calls follow the shape of the dose curve; as a rule, active = well fitted inhibition curve with a large enough effect; inconclusive = small, poorly fitted or top-dose-only effect; inactive = no such curve, though single readings can be large or run the other way. Where the call is inconclusive, the potency comes from a doubtful curve fit. Potency is read from the fitted curve at half-maximal effect; tags tell the direction and shape of the fitted curve.", "data": [{"target": "Bromodomain adjacent to zinc finger domain protein 2B (Homo sapiens) (UniProt Q9UIF8)", "sequence (Q9UIF8 whole entry, looked up, the tested form may be a part)": "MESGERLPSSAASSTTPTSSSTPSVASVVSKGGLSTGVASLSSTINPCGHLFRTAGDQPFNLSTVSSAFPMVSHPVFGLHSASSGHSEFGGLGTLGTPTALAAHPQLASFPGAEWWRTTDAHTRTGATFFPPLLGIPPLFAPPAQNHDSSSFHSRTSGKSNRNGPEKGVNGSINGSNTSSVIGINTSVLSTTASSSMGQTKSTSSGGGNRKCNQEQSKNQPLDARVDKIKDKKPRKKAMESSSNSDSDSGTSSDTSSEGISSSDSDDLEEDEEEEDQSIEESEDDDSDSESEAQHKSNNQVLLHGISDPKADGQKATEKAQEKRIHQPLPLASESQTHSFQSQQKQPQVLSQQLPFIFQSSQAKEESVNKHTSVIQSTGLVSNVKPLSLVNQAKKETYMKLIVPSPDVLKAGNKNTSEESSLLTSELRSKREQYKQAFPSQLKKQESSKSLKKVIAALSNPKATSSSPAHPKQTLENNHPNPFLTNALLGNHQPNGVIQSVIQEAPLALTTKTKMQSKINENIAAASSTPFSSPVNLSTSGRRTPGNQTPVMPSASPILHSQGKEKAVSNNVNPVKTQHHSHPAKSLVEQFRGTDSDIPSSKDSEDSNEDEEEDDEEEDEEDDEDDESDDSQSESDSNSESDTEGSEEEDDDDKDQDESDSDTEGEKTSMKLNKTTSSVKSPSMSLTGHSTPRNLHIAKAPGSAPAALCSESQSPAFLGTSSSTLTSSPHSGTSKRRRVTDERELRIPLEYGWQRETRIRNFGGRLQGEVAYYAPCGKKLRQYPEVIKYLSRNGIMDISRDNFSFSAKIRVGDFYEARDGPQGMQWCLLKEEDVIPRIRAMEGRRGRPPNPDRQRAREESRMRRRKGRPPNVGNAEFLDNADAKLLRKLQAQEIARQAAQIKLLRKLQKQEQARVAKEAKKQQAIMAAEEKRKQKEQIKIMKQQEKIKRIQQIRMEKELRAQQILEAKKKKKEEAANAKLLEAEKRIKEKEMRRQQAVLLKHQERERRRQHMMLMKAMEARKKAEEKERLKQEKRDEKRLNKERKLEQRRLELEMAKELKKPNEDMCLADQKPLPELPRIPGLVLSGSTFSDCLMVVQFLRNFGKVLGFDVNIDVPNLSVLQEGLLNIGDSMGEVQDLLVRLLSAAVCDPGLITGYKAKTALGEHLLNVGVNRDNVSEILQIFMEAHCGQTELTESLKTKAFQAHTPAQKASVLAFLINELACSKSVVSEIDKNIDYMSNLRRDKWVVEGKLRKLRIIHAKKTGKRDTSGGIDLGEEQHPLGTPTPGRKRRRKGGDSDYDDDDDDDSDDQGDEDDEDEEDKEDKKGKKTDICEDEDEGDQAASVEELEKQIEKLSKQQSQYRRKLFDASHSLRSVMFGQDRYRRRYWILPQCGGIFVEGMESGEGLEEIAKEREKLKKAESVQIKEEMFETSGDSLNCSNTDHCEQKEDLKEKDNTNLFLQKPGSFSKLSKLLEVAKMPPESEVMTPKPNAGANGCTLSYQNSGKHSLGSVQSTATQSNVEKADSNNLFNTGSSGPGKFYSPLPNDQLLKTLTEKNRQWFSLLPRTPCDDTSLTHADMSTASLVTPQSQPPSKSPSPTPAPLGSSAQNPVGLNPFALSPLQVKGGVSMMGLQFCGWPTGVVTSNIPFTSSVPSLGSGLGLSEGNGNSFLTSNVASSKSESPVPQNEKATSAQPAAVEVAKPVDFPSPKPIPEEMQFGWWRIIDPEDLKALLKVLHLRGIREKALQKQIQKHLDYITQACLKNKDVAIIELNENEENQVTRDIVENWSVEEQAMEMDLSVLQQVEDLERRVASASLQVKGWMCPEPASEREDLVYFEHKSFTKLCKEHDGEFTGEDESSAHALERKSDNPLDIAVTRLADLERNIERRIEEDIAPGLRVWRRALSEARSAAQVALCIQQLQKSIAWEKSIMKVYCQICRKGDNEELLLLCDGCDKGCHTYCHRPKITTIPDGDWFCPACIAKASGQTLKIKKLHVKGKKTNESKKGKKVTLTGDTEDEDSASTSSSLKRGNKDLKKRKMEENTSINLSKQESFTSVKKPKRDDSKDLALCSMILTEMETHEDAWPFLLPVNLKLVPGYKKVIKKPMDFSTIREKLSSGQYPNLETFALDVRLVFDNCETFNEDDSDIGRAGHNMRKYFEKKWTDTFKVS", "test": "qHTS Assay for Inhibitors of BAZ2B; also: nearly all actives have a fitted effect of over 60% in size", "conditions": "AlphaScreen BAZ2B-H3K14Ac peptide displacement; series mostly up to 114 µM", "method_in_brief": "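BAZ2B 50 nM plus b-H3(5-23)K14Ac 50 nM, PBS pH 7.4/0.01% Tween-20, 30 min RT; compound added (max 110 uM), 30 min RT; streptavidin donor/Ni-chelate acceptor beads 10 ug/mL final, 20 min dark; AlphaScreen read.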", "values": [{"compound": "O=C(Nc1cccn(Cc2c(Cl)cccc2Cl)c1=O)C1CC1", "Potency": "inconclusive: 79.4 µM [inhibitor, single point]"}, {"compound": "CCOc1cc(/C=C2/SC(=S)NC2=O)ccc1OC(=O)c1ccco1", "Potency": "active: 39.8 µM"}, {"compound": "CC(=O)Nc1cc(NC(C)=O)cc(C(=O)OCC(=O)N2CC(C)OC(C)C2)c1", "note": "(stereo not given)", "Potency": "inconclusive: 89.1 µM [inhibitor, single point]"}, {"compound": "OC(CNCc1ccccc1)COCc1ccc(Cl)cc1", "note": "(stereo not given)", "Potency": "active: 50.1 µM"}, {"compound": "Cc1cc(C)cc(N)c1", "Potency": "inactive"}, {"compound": "O=C(OCc1nnc(-c2ccccc2)o1)c1ccc([N+](=O)[O-])s1", "Potency": "inconclusive: 50.1 µM [inhibitor, partial curve]"}, {"compound": "O=C(N/N=C/c1ccoc1)c1ccc([N+](=O)[O-])cc1", "Potency": "inconclusive: 79.4 µM [inhibitor, single point]"}, {"compound": "COc1ccc2ccccc2c1/C=N\\n1c(C)cc(C)c(C(N)=O)c1=O", "Potency": "inconclusive: 79.4 µM [inhibitor, single point]"}, {"compound": "O=C(NCCS(=O)(=O)N1CCN(c2ccccc2F)CC1)c1ccccc1C(F)(F)F", "Potency": "inactive"}, {"compound": "Cc1c(OCC(=O)NC2CCN(Cc3ccccc3)CC2)ccc2c3c(c(=O)oc12)CCC3", "Potency": "inactive"}, {"compound": "CCC1(c2ccccc2)NC(=S)N(c2ccc(C)c(C)c2)N1", "note": "(stereo not given)", "Potency": "inconclusive: 79.4 µM [inhibitor, partial curve]"}, {"compound": "CCOC(=O)c1ccc2c(c1)sc1nc(-c3ccc(OCC)cc3)cn12", "Potency": "inactive"}, {"compound": "CNS(=O)(=O)c1cccc(C(=O)OCC(=O)c2ccc[nH]2)c1", "Potency": "inconclusive: 79.4 µM [inhibitor, single point]"}, {"compound": "C=CCn1c(C)cc(C(=O)CSc2nnc3c(Cl)cc(Cl)cn23)c1C", "Potency": "inactive"}, {"compound": "Cc1ccc(NC(=O)N/C=C/c2ccco2)cc1", "Potency": "active: 79.4 µM"}, {"compound": "OC(COc1cccc2ccccc12)CN1CCN(c2cccc(Cl)c2)CC1", "note": "(stereo not given)", "Potency": "inconclusive: 28.2 µM [inhibitor, full curve]"}, {"compound": "O=C(Cc1cccs1)NCc1ccc(Cl)cc1", "Potency": "inactive"}, {"compound": "COc1ccc(CCN2C(=O)c3ccccc3C2(O)c2ncc[nH]2)cc1OC", "note": "(stereo not given)", "Potency": "inconclusive: 79.4 µM [inhibitor, single point]"}, {"compound": "COc1ccc(N2CCN(CC(=O)Nc3nc(C)cs3)CC2)cc1", "Potency": "active: 11.2 µM"}, {"compound": "FC(F)(F)c1ccc(Cl)c(-n2c(Cc3cccs3)n[nH]c2=S)c1", "Potency": "inconclusive: 79.4 µM [inhibitor, single point]"}, {"compound": "Cc1ccc(S(=O)(=O)N2CCOCC2)cc1C(=O)N(Cc1nnc(-c2ccccc2Cl)o1)C1CC1", "Potency": "inconclusive: 3.55 µM [inhibitor, single point]"}, {"compound": "O=C(Nc1cccc(Br)c1)c1cc(-c2ccc3c(c2)OCCO3)on1", "Potency": "inconclusive: 89.1 µM [inhibitor, single point]"}, {"compound": "CCOC(=O)c1c(C)[nH]c(C(=O)O)c1C", "Potency": "inconclusive: 89.1 µM [inhibitor, single point]"}, {"compound": "Cc1cccc(Cn2c(=O)n(CC3CCC(C(=O)N4CCC(C)CC4)CC3)c(=O)c3sccc32)c1", "note": "(stereo not given)", "Potency": "inactive"}, {"compound": "OCCN1CCN(CC/C=C2/c3ccccc3Sc3ccc(Cl)cc32)CC1", "Potency": "inconclusive: 50.1 µM [inhibitor, partial curve]"}, {"compound": "COc1ccc(CCn2c(=O)c3cccnc3n(Cc3cccc([N+](=O)[O-])c3)c2=O)cc1OC", "Potency": "inconclusive: 89.1 µM [inhibitor, partial curve]"}, {"compound": "Clc1ccccc1Nc1ncnc2c1nc1n2CCCCC1", "Potency": "inconclusive: 79.4 µM [inhibitor, single point]"}, {"compound": "CCOc1ccc(N=Nc2c(=O)[nH]n3c(C)cc(C)nc23)cc1", "Potency": "inconclusive: 56.2 µM [inhibitor, single point]"}, {"compound": "C/C(CC(=O)Nc1cc(C)ccn1)=N\\NC(=O)C(=O)NC(C)C", "Potency": "inconclusive: 89.1 µM [inhibitor, single point]"}, {"compound": "CCC(=O)N1CCc2cc(S(=O)(=O)CCC(=O)Nc3cccc(C)n3)ccc21", "Potency": "inactive"}, {"compound": "COC(=O)[C@@]12CCCN1[C@H](c1ccc(SC3CCCCC3)cc1)[C@H]1C(=O)N(C)C(=O)[C@H]12", "Potency": "inconclusive: 89.1 µM [inhibitor, single point]"}, {"compound": "Cc1ccc(NC(=O)Cn2c(=O)n(CCC(=O)NCc3ccccc3Cl)c(=O)c3ccccc32)c(C)c1", "Potency": "inactive"}, {"compound": "COc1ccc2[nH]c(=O)c(CN(Cc3cccnc3)Cc3nnnn3CC3CCCO3)cc2c1", "note": "(stereo not given)", "Potency": "inactive"}, {"compound": "CN1CCSc2ccc(C(=O)NCc3ccccc3)cc21", "Potency": "inconclusive: 3.55 µM [inhibitor, full curve]"}, {"compound": "Cc1ccc(-n2cnc3cc(C(=O)NCc4ccccc4Cl)ccc32)c(C)c1", "Potency": "inconclusive: 1.58 µM [inhibitor, full curve]"}, {"compound": "O=C(/C=C/c1ccccc1[N+](=O)[O-])Nc1ccccc1", "Potency": "inactive"}, {"compound": "O=C(Nc1cccc(C(=O)O)c1)/C(=C\\c1ccc2c(c1)OCO2)NC(=O)c1ccccc1Cl", "Potency": "inconclusive: 79.4 µM [inhibitor, single point]"}, {"compound": "COc1ccc(C(=O)c2sc(Nc3cc(Cl)ccc3C)nc2N)cc1OC", "Potency": "inconclusive: 44.7 µM [inhibitor, partial curve]"}, {"compound": "Cc1ccn2c(Nc3ccc4c(c3)OCO4)c(-c3ccccn3)nc2c1", "Potency": "active: 12.6 µM"}, {"compound": "COc1ccc(N2CCN(CC(=O)Nc3ccccc3SC)CC2)cc1", "Potency": "active: 50.1 µM"}, {"compound": "O=C1NN(c2ccc(Br)cc2)C(=O)/C1=C\\c1ccc(O)cc1O", "Potency": "inconclusive: 70.8 µM [inhibitor, single point]"}, {"compound": "CCn1c(SCC(=O)N2CCCC2)nnc1-c1ccc(N)cc1", "Potency": "inactive"}, {"compound": "CCOC(=O)n1cc(-c2cnc(CNC(=O)C(C)(c3ccccc3)c3ccccc3)o2)c2ccccc21", "Potency": "inactive"}, {"compound": "Oc1ccc2oc3c(c2c1C=NCc1ccncc1)CCCC3", "Potency": "inactive"}, {"compound": "Cc1cc(C)c2sc(N3CCN(C(=O)C4CC4)CC3)nc2c1", "Potency": "inactive"}, {"compound": "Cc1ccc(C)c(CN2CCCNC2=O)c1", "Potency": "inconclusive: 44.7 µM [inhibitor, full curve, poor fit]"}, {"compound": "CC(C(=O)Nc1ccc(N2CCOCC2)cc1)N1C(=O)c2ccccc2C1=O", "note": "(stereo not given)", "Potency": "inactive"}, {"compound": "O=C(NCC1CCCO1)c1cccc(Oc2ccccc2)c1", "note": "(stereo not given)", "Potency": "inactive"}, {"compound": "Cc1ccc(-n2c3c(cc(C(=O)NCc4ccco4)c2=O)C(=O)CCC3)cc1", "Potency": "inconclusive: 89.1 µM [inhibitor, single point]"}, {"compound": "Cc1ccc(C(=O)Nc2ccccc2C(=O)O)cc1NC(=O)COc1c(C)cccc1C", "Potency": "active: 79.4 µM"}, {"compound": "O=C(Nc1ccccc1OCc1ccccc1)c1ccccc1Br", "Potency": "inactive"}, {"compound": "Cc1cccc(NC(=S)N(CCN(C)C)C(C)c2ccccn2)c1", "note": "(stereo not given)", "Potency": "active: 56.2 µM"}, {"compound": "CN(C)/C=C1\\C(=O)NN=C1c1ccccc1", "Potency": "inactive"}, {"compound": "CCN(CC)c1ccc(NC(=O)COC(=O)CCC(=O)c2ccc(F)cc2)cc1", "Potency": "inconclusive: 22.4 µM [inhibitor, partial curve]"}, {"compound": "COC(=O)C1=C(C(=O)OC)[C@@H]2N(C)c3ccc(OC)cc3[C@@]23C[C@@H](C(=O)OC)N(C(=O)c2cccs2)C3=N1", "Potency": "active: 50.1 µM"}, {"compound": "O=C(Nc1ccc2nc3n(c(=O)c2c1)CCCCC3)C(=O)N1CCN(c2ccc(F)cc2)CC1", "Potency": "inactive"}, {"compound": "CCOc1ccccc1-n1c(SCC(=O)Nc2nccs2)nnc1-c1ccoc1C", "Potency": "inconclusive: 44.7 µM [inhibitor, partial curve]"}, {"compound": "COc1ccc(CNC(=O)CCc2c(C)c3cc4c(C)coc4cc3oc2=O)cc1", "Potency": "inactive"}, {"compound": "O=C(CCC1N=C2c3ccccc3N=C(SCc3ccc(F)cc3)N2C1=O)NCc1ccco1", "note": "(stereo not given)", "Potency": "inconclusive: 50.1 µM [inhibitor, partial curve]"}, {"compound": "O=[N+]([O-])c1cccc(-c2csc(CS(=O)(=O)Cc3ccco3)n2)c1", "Potency": "inconclusive: 79.4 µM [inhibitor, partial curve]"}, {"compound": "Oc1c(C=Nc2ccccc2)sc2ccccc12", "Potency": "inactive"}, {"compound": "CCOC(=O)N1CCN(Cc2nc3cc(NC(=O)c4ccccc4OC)ccc3n2C(C)C)CC1", "Potency": "active: 79.4 µM"}, {"compound": "C/C(=N\\NC(=O)c1ccc(Cl)c(Cl)c1)c1ccccn1", "Potency": "active: 7.94 µM"}, {"compound": "NC(=O)C1CCN(c2nc(-c3cccs3)cs2)CC1", "Potency": "inconclusive: 89.1 µM [inhibitor, single point]"}, {"compound": "COc1ccc(C(=O)c2ccc(OC)c3cccc(O)c23)cc1OC", "Potency": "inconclusive: 89.1 µM [inhibitor, single point]"}, {"compound": "CCOc1ccc(C2N(c3cc(C)on3)C(=O)C3CCCN32)cc1OC", "note": "(stereo not given)", "Potency": "inactive"}, {"compound": "N#CC1=C2SCC(O)(c3ccccc3)N2C(=O)CC1c1cccs1", "note": "(stereo not given)", "Potency": "inconclusive: 50.1 µM [inhibitor, partial curve]"}, {"compound": "CN(C)S(=O)(=O)c1cccc(NC(=S)NCCCn2ccnc2)c1", "Potency": "active: 79.4 µM"}, {"compound": "Cc1cc(C)c2nc(NC(=O)c3ccc(S(=O)(=O)N4CCC(C)CC4)cc3)sc2c1", "Potency": "inactive"}, {"compound": "O=C(COC(=O)c1ccccn1)Nc1cccc(Cl)c1Cl", "Potency": "inconclusive: 100 µM [inhibitor, single point]"}, {"compound": "CC1CCN(c2oc(-c3ccc(COc4ccc(Cl)cc4)o3)nc2C#N)CC1", "Potency": "inconclusive: 5.62 µM [inhibitor, partial curve]"}, {"compound": "O=C1/C(=C2\\C(=O)N(Cc3ccc(F)cc3)c3ccccc32)SC(=S)N1CCS(=O)(=O)O", "Potency": "active: 14.1 µM"}, {"compound": "CSc1ccc(CNC(=O)CCc2c(C)nn(-c3ccc(N4CCCC4)nn3)c2C)cc1", "Potency": "active: 56.2 µM"}, {"compound": "CC(=O)c1c(C)[nH]c(C(=O)OCC(=O)Nc2c(C)n(C)n(-c3ccccc3)c2=O)c1C", "Potency": "inconclusive: 89.1 µM [inhibitor, single point]"}, {"compound": "S=c1[nH]nc(COc2ccccc2)n1/N=C/c1ccco1", "Potency": "inconclusive: 56.2 µM [inhibitor, partial curve, poor fit]"}]}]}
